# Assay results as given in article PMC12136788.
# Some of the results follow.
# T1: UNK ZnF1-3 (human, UniProt Q9C0B0 31-174)
# T1 sequence: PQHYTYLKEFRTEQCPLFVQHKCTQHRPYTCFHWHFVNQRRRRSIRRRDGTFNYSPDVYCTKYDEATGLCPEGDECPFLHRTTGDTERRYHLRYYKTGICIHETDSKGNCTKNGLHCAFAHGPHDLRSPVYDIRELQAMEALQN
# B1: chr14:92628060:92628061:+_ENSG00000165934_ENST00000298875|hu_hu|FALSE|FALSE (ssRNA)
# RNA: GGGAGUUCUACAGUCCGACGAUCUUGACAUCAUGUCCUUUAUACAAUGGCAUAUUGUUCAUAUAAAAGGUCUCUUAUCCUAUAAAAAUCUUGACAAAGGCAGCCUUCUAAUCCAAUGCGUCCAGUUUCCGUUCUGCGGACUGCCAACAGAGGAUUGAGCAUCA
# B2: chr12:39756943:39756944:-_ENSG00000139116_ENST00000544797|hu_mus|hu_hu_hu_mus_False|68_88 (ssRNA)
# RNA: GGGAGUUCUACAGUCCGACGAUCGGUUUGGCUGUUACCCCCAAGGGAAUCCUGUAGGAGUCUUGUCAGCUUGGAAUCUCUGUAAGGGACAUGGGUGGCUCUCUUGCUCUUGUCCCCCAAGGCGCUGAUUACAUUCCCAAGAGCCAACAGAGGAUUGAGCAUCA
# B3: chr3:49066234:49066235:-_ENSG00000178035_ENST00000326739|hu_hu|FALSE|FALSE (ssRNA)
# RNA: GGGAGUUCUACAGUCCGACGAUCAGAAGUCAGGUCCACCUGGUCUGCAGUGAAGUCGAUGUACCCAGGGAGAAUGAGAAAGUCAUUGUAGGUGAGGCCGUCUCCGCAGUUGAAGAGCUGCUGUGCUGUGAGUCCGUCGUCUGGCAACAGAGGAUUGAGCAUCA
# B4: chr16:55990476:55990477:+_ENSMUSG00000022601_ENSMUST00000050248|mus_mus|FALSE|FALSE (ssRNA)
# RNA: GGGAGUUCUACAGUCCGACGAUCUAGUUUAUGUACACUUUCACAAAUUUCUAAAACUUCUGACAUAAAAAGGUGGCGAGCUAAGACGGCUACAUCAGCCAUGCUACAAAAGUCAAAACUUAGUACAGAAGUAUAGGCAAAUUCCAACAGAGGAUUGAGCAUCA
# B5: chr1:39494447:39494448:+_ENSG00000168653_ENST00000372967|hu_mus|hu_hu_hu_mus_False|58_98 (ssRNA)
# RNA: GGGAGUUCUACAGUCCGACGAUCGCACCGAGCGGCGAUCUUGUAGGGCUGUUCUGCGCUUAGGAACAUAAAGUGCCGAUCUAUGUUGAUGCCCAGCUUUUUCUGUAUGUCAAGGAAAGGCAUGGCUCUGCAGUGCCCUUGUCACAACAGAGGAUUGAGCAUCA
# B6: 89236139_89237210_1028_CDS_ENSG00000065243_ENST00000370521|human|control|control (ssRNA)
# RNA: GGGAGUUCUACAGUCCGACGAUCAAGUAAUUUCAUUACAUUCUUUGCACCUUCUGCUACUGCAAACUCUAUCCUAAAAUGAUGCCUUAAUUCUUCCAUCCGAAGUUCAAGAGGACUUAUCACAGGUUUUGCAUUAUCAAAAGCCAACAGAGGAUUGAGCAUCA
# B7: chr9:95013113:95013114:-_ENSG00000196305_ENST00000443024|hu_hu|motif|central (ssRNA)
# RNA: GGGAGUUCUACAGUCCGACGAUCUUCAGUGAGAAAAGGUGUGUAGGGAGCCAUAAGUCUGCAAAGAGAAAGCAGAACACGGAACAAGGUUUCUAGGGCCAUGACACAAUCCUCCAUCCCAUUUUCACCCUUUAAUCUUCUGCGCAACAGAGGAUUGAGCAUCA
# B8: chr12:42180722:42180723:-_ENSMUSG00000036295_ENSMUST00000043884|mus_hu|mus_mus_mus_hu_True|8_68 (ssRNA)
# RNA: GGGAGUUCUACAGUCCGACGAUCCUGUAGGAGAAGAAUCUGUGUGUUAGCUGGCAAUCUGGCUGGGAAGUUUAAAAGACCUAAAUCAUUACAAUCCACUGUAGAUGCUUCCAUAUAAAUGGAUCUGGGGGUAAACCAAGGCCUCAACAGAGGAUUGAGCAUCA
# B9: chr2:9570881:9570882:+_ENSG00000119203_ENST00000238112|hu_hu|FALSE|FALSE (ssRNA)
# RNA: GGGAGUUCUACAGUCCGACGAUCACUUGUCUUCUGUAGAAACCAGGGCAGAGCUCCACAGUGAUCCAAAUGGAAAUGACUAAUUAAUAGGAGAUCAAUCUCAGCUGGGUCAAUUAAAUCAAUAUAAGGAAGAGCAUCCAUUCCCAACAGAGGAUUGAGCAUCA
# B10: chr1:244855233:244855234:+_ENSG00000121644_ENST00000302550|hu_mus|hu_hu_hu_mus_True|78_98 (ssRNA)
# RNA: GGGAGUUCUACAGUCCGACGAUCCAUCAGAUGGUAGGCAUUGCCUUUAUACUCUUUUCCCAGUUCUUCUACAAUUUUCUCUAUAUCAUCUUCUAGAAAGUCCGUACUUCCUAGAACAACAGCUUCUUUAAAUUUAAAUGUUUCCAACAGAGGAUUGAGCAUCA
# B11: 60093252_60098224_983_3pUTR_ENSMUSG00000020986_ENSMUST00000021375|mouse|control|control (ssRNA)
# RNA: GGGAGUUCUACAGUCCGACGAUCAGUGUUGGGGAAAGUACACUCAAGCAGUCCCACAGCUAUGGAAAGCGCCACUCCUGAGGAACGCAGCGGUCUCUUUCCUUGUGGUACAGGCCAAGGGUCUCGCUGAAGUUCUCCCAGAAGCAACAGAGGAUUGAGCAUCA
# B12: 86898947_86899067_1269_CDS_ENSMUSG00000020495_ENSMUST00000020801|mouse|control|control (ssRNA)
# RNA: GGGAGUUCUACAGUCCGACGAUCCUGUGGGUUCCUGCCCACACUGUCAUCAAAACCUUUUUUGCUUAGGACCAGCUCCACGUGCUGCCACAGGAAUUCUCGAAGAGUGAAAUCCACUAGCUGGCCUGAAGAACUCGAGGUGCUCAACAGAGGAUUGAGCAUCA
# B13: chr10:79795341:79795342:+_ENSG00000138326_ENST00000360830|hu_hu|motif|central (ssRNA)
# RNA: GGGAGUUCUACAGUCCGACGAUCAUGAGUUCUGAAUCCAAAUACAAAGAUGACAUCCGGUGUGGUCUUGUACAUUUUGGCGGGUUUUUCCCGAAUUUCUGUCUUAGGCACUGUCGCCUUCCCGGGGUGAAGGACAUCAAUGACCAACAGAGGAUUGAGCAUCA
# B14: chr6:119226881:119226882:+_ENSG00000111875_ENST00000229595|hu_hu|FALSE|FALSE (ssRNA)
# RNA: GGGAGUUCUACAGUCCGACGAUCUGGAUUUUCCCUUAAUUCUGUCUCAGUAUAUUCAUUAUUUACAUAAUAGCCAACUCUAAUAAAUUCUUGUCCUCGAUAGGUACAAGUAAUUAGCACAACAGUUACGCCUACUGCAUCUGCCAACAGAGGAUUGAGCAUCA
# B15: chr7:149068622:149068623:-_ENSMUSG00000025139_ENSMUST00000001950|mus_hu|mus_mus_mus_hu_False|1_38 (ssRNA)
# RNA: GGGAGUUCUACAGUCCGACGAUCGUGAGGCCUCUGAGUGUGGCUUGUGGUCUGUCCUGGGUUAGAGUUGUUAAUAUCACGGAACAUACCAUCUAGAGAGGUUCUGCCCCGCCUGACACCUUCAUUCCCAAUGGAGAAUCUGCUCAACAGAGGAUUGAGCAUCA
# B16: chr7:149068622:149068623:-_ENSMUSG00000025139_ENSMUST00000001950|mus_hu|mus_mus_mus_hu_False|18_48 (ssRNA)
# RNA: GGGAGUUCUACAGUCCGACGAUCGUGAGGCCUCUGAGUGUGGCUUGUGGUCUGUCCUGGGUUAGAGUUGUUAAUAUCACGGAACAUACCACUUAAGACGUUCCAGUCCCGCCUGACCAUCCACCCUCCAAUGGAGAAGAAAUCCAACAGAGGAUUGAGCAUCA
# B17: chr1:114133195:114133196:+_ENSG00000081026_ENST00000369615|hu_hu|FALSE|FALSE (ssRNA)
# RNA: GGGAGUUCUACAGUCCGACGAUCCAUUUCCCAGUUUUUGGGCAGUGGUUCCAGAGUCUCAUCUCUCAUCAUAUAAUUUCUAAAGUCCAUGGAGCUAUUUGUUUGGUUGUAACUUGGAACAGUCUUCAUCCAGUCAGAUGACUCCAACAGAGGAUUGAGCAUCA
# B18: chr2:128605524:128605525:-_ENSG00000144231_ENST00000272645|hu_hu|FALSE|FALSE (ssRNA)
# RNA: GGGAGUUCUACAGUCCGACGAUCCAAGGCUGCUCCAAGAUUCCAUGUCACCUGGGCCUGUGAGUUAUUUGAAACAGCAACCUAACCCCACGCCAAGCUGGGCUGUUUUCUCCAAAGGAAUUCUCAACUGUCUUCAACAGAAUUCAACAGAGGAUUGAGCAUCA
# B19: chr10:98487791:98487792:+_ENSMUSG00000019943_ENSMUST00000020107|mus_mus|motif|central (ssRNA)
# RNA: GGGAGUUCUACAGUCCGACGAUCCAUGCAGCACGUUAAUGGCAAAUUCAAGACGAGGAGUCCACCUUGGGCUCCUGGUCGGAAUAUGCGUCCCAGCAUAUCAUGCUACCUCUUUUUACAGUAUGAAUAACUACAAACACCUGACAACAGAGGAUUGAGCAUCA
# B20: chrX:45560084:45560085:-_ENSMUSG00000036985_ENSMUST00000037960|mus_hu|motif|central (ssRNA)
# RNA: GGGAGUUCUACAGUCCGACGAUCGCGAUUACACGAGAGAAGAAACAGAGGCUGAGCCCAGCUUUGAAAUCACGUUGCCUGCGGUUCCUGCCGCUGGGUCAAACAUCAUCAAAAGUCCAAUUGCUAGCCCUGGAAGACAAUCUCCAACAGAGGAUUGAGCAUCA
# B21: chr19:16212804:16212805:+_ENSG00000167460_ENST00000300933|hu_mus|hu_hu_hu_mus_False|68_68 (ssRNA)
# RNA: GGGAGUUCUACAGUCCGACGAUCAACAAUUCUGGAGUGAAGGAAAGAUGUAACAUGGAACAGCAUUCCAUCUAUUACAGAAGGCACAUGGGCAACAAUGAUCACCCCAGCAUUCUCGCUUGGAAUGCUUAAAGACAAUCUGUUCAACAGAGGAUUGAGCAUCA
# B22: chr6:41757443:41757444:+_ENSG00000214736_ENST00000398881|hu_mus|hu_hu_hu_mus_False|8_28 (ssRNA)
# RNA: GGGAGUUCUACAGUCCGACGAUCGAACCGUGCAGAGGCAACAUCUCAGCCGACACUGGGGGAUGGGGGGGCAGUGGGGGGGGGUUCAGGCAAGGAGAGGGAGUCAACCCAUCUGAACACUCAGGUAGCUGCCAUCAGUCACAGCAACAGAGGAUUGAGCAUCA
# Target: T1, UNK ZnF1-3
# Experiment: nsRBNS (natural sequence RNA bind-n-seq); RBNS binding buffer (assumed for nsRBNS): 25 mM Tris pH 7.5, 150 mM KCl, 3 mM MgCl2, 0.01% Triton X-100, 500 ug/ml BSA, 20 U/ml SUPERase-In, 4 C; UNK is unkempt and MSI1 is Musashi-1; names of the RNAs are library labels; protein concentration not given here; high values mean tight binding
row,Binder,binding signal [enrichment R]
1,B1,0.969
2,B2,0.685
3,B3,1.62
4,B4,1.14
5,B5,0.443
6,B6,1.01
7,B7,1.27
8,B8,1.29
9,B9,2.33
10,B10,1.41
11,B11,0.383
12,B12,0.903
13,B13,0.935
14,B14,0.818
15,B15,0.745
16,B16,0.707
17,B17,0.699
18,B18,1.09
19,B19,0.896
20,B20,1.46
21,B21,0.862
22,B22,1.61
